Values joined by “and” are separate entries in the source; they are usually repeats but may differ in a detail not shown here. Equal entries are not always repeated. The whole screen tested about 360,000 compounds, of which about 2,600 (0.72%) were called active. This list was built around the results that the source calls inconclusive (neither active nor inactive); the mix of calls is not that of the screen. Calls follow the shape of the dose curve; as a rule, active = well fitted inhibition curve with a large enough effect; inconclusive = small, poorly fitted or top-dose-only effect; inactive = no such curve, though single readings can be large or run the other way. Where the call is inconclusive, the potency comes from a doubtful curve fit.
Experiment: Primary qHTS for Inhibitors of ATXN expression; also: nearly all actives have a fitted effect of over 55% in size
Conditions: HEK-293 ATXN2-luciferase reporter, luminescence, 24 h; activity change, negative = inhibition: at 57 µM (top of the series)
Procedure, shortened: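 ATXN2-luciferase reporter cells (luciferase flanked by upstream and downstream ATXN2 gene portions) were treated 24 h at 37 °C with compounds at up to 57 uM. SteadyGlo luminescence gave expression; GF-AFC fluorescence gave viability.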
% is scaled to controls: 0 for no effect and ±100 for the full control effect; potency is read from the fitted curve at half-maximal effect; tags tell the direction and shape of the fitted curve.

SMILES	Potency	activity change, negative = inhibition
Cc1nc(-c2ccncc2)nc(NCCNc2ccc(C(F)(F)F)cn2)c1Cl	inactive	–
COc1cccc(NC(=O)C2CCN(Cc3cnn(-c4ccccc4)c3-n3cccc3)CC2)c1	inconclusive: 25.1 µM [inhibitor, partial curve, poor fit]	–
COc1ccc(Cl)cc1/C=C1/C(=O)ON=C1C	inactive	–
COc1ccc(OC)c(NC(=O)c2cc3n(n2)C(C(F)(F)F)CC(c2ccc4c(c2)OCO4)N3)c1 (configuration not stated)	inconclusive: 20 µM [inhibitor, partial curve, poor fit]	–
Cc1cc(C)nc(Sc2ccc([N+](=O)[O-])cc2[N+](=O)[O-])n1	inconclusive: 39.8 µM [inhibitor, single point]	–
COCCCNc1oc(-c2ccc(COc3ccccc3C)o2)nc1C#N	inconclusive: 28.2 µM [inhibitor, partial curve, poor fit]	–
CC(=O)Nc1ccc(NS(=O)(=O)c2ccc(C)cc2)c([N+](=O)[O-])c1	inactive	–
Cc1ccc(N2CC(C(=O)NCCS(=O)(=O)N3CCN(c4ccc(F)cc4)CC3)CC2=O)cc1 (configuration not stated)	inactive	–
CCOC(=O)C(C)Oc1cccc2c(=O)n(CC(=O)NCc3ccco3)ccc12 (configuration not stated)	inactive	–
c1ccc(Cn2ccnc2SCc2nnc(-c3ccccc3)o2)cc1	inactive	–
O=[N+]([O-])c1ncccc1Oc1nc(-c2cccnc2)nc2ccccc12	inconclusive: 42.3 µM [inhibitor, partial curve, poor fit]	–
C=C1CC(Cn2cc(Br)c(=O)[nH]c2=O)(c2ccc(-c3ccccc3)cc2)OC1=O (configuration not stated)	active: 28.2 µM	–
O=C(NNC(=O)c1cc(-c2ccccc2)n(-c2ccccc2)n1)c1cccc([N+](=O)[O-])c1	inactive	–
COc1ccc(CCNC(=O)c2cc(-c3ccc(C)cc3)nc3n[nH]c(-c4ccc(F)cc4)c23)cc1OC	inactive	–
O=C(c1cccs1)N1C[C@@H](O)[C@H](n2cc(-c3ccc(F)cc3)nn2)C[C@@H]1c1ccc(Cl)cc1	inconclusive: 39.8 µM [inhibitor, single point]	–
COc1ccc2c(c1)c(CC(=O)Nc1cccc(S(N)(=O)=O)c1)c(C)n2C(=O)c1ccc(Cl)cc1	inconclusive: 39.8 µM [inhibitor, single point]	–
O=C(Nc1ccc(Br)cc1)Nc1nc2c(s1)CCCCCC2	inactive	–
CC(C)=C1SC(N2CCN(c3ccc(Cl)cc3)CC2)=NC1=O	inconclusive: 31.6 µM [inhibitor, single point]	–
Cc1cc(C)c(S(=O)(=O)ON2C(=O)c3ccccc3C2=O)cc1C	inconclusive: 35.5 µM [inhibitor, single point]	–
O=C1CCC2S/C(=C/Nc3ccc(C(F)(F)F)cc3)C(=O)N12 (configuration not stated)	active: 2.82 µM	–
Cc1ccc(C)c(N(CC(=O)NC2CCCC2)C(=O)c2oc(C(C)(C)C)cc2C)c1	inconclusive: 22.4 µM [inhibitor, single point]	–
Cc1ccc(C(=O)Nc2nnc(SCC(=O)N3CCCc4ccccc43)s2)cc1	inconclusive: 12.6 µM [inhibitor, partial curve, poor fit]	–
O=C(c1ccc2c(=O)n3c(nc2c1)CCCCC3)N1CCN(c2ccccc2)CC1	inactive	–

SMILES	Potency	activity change, negative = inhibition
COc1ccccc1NC(=S)NNC(=O)c1ccc(O)cc1	inactive	–
Cc1cccc2c1-c1sc(C(=O)NCCCN3CCC(C)CC3)cc1CO2	inconclusive: 17.8 µM [inhibitor, single point]	–
COc1ccc(Cl)cc1NC(=O)c1c(NCc2cccnc2)sc2c1CCCC2	inconclusive: 12.6 µM [inhibitor, partial curve]	–
Cc1n[nH]c(=S)n1/N=C/c1ccccc1OCc1ccc(Cl)cc1Cl	inconclusive: 31.6 µM [inhibitor, single point]	–
FC(F)(F)c1cccc(OCCN2CCN(Cc3ccccc3)CC2)c1	inconclusive: 20 µM [inhibitor, partial curve, poor fit]	–
COc1ccc(C(=O)CNc2ccccc2Br)cc1	inactive	–
OCCNc1nc(Nc2ccc(Br)cc2)nc2ccccc12	–	inactive: -11.3% [at 11.3 µM]
Cc1cccc(C(=O)NC(=S)NNC(=O)COc2ccc(Cl)cc2)c1	inactive	–
O=C(N/N=C/c1c(F)c(F)c(F)c(F)c1F)c1ccc(Cn2cc(Br)cn2)o1	inconclusive: 28.2 µM [inhibitor, single point]	–
CC(=O)C1=C(c2cccc([N+](=O)[O-])c2)N(C(C)=O)n2c(C)nnc2S1	inconclusive: 14.1 µM [inhibitor, partial curve]	–
COc1ccc(N(Cc2ccccc2)C(=O)OC(C)(C)C)c(C(=O)N(C)OC)c1	inactive	–
C=CC[C@@H](CC(=O)N[C@H](CO)Cc1ccccc1)C(=O)N[C@H](COC(=O)[C@@H](CC=C)Cc1ccc(F)cc1)C(C)(C)C	inconclusive: 35.5 µM [inhibitor, single point]	–
COc1ccc(S(=O)(=O)N2CCN(C(=O)c3cc(-c4ccc(Br)cc4)n[nH]3)CC2)cc1OC	inconclusive: 22.4 µM [inhibitor, single point]	–
COC(=O)[C@]12CCCCC=C1N(CCC1=CCCCC1)C(=O)[C@H](CC(=O)N1CCCCC1)C2	inconclusive: 14.1 µM [inhibitor, partial curve, poor fit]	–
O=S1(=O)C=C(Sc2nc3cc(Cl)ccc3o2)c2ccccc21	inconclusive: 8.91 µM [inhibitor, partial curve, poor fit]	–
S=C(Nc1ccc(Br)cc1Cl)NC1CCN(Cc2ccccc2)CC1	inconclusive: 25.1 µM [inhibitor, partial curve, poor fit]	–
COc1ccc(-c2cnc3c(NC(C)=O)cc(-c4ccc(C(=O)NC5CC5)cc4)cn23)cc1OC	inactive	–
N#C/C(=C(/O)c1ccc2c(c1)OCO2)c1nc2cc(C(F)(F)F)ccc2s1	inconclusive: 39.8 µM [inhibitor, single point]	–
NC(=O)Cn1c(=O)n(CCc2ccccc2)c(=O)c2c3c(sc21)CCCC3	inconclusive: 17.8 µM [inhibitor, partial curve]	–
Nc1ccc2nc(-c3ccc(Cl)cc3)[nH]c2c1	inconclusive: 39.8 µM [inhibitor, single point]	–
CC(C)n1cc(CN2CCCC(C(=O)Nc3cccc(-c4cc5ccccc5[nH]4)c3)C2)cn1 (configuration not stated)	active: 28.2 µM	–
O=C(c1ccco1)N1CCN(C(=O)C2CCCc3c2[nH]c2ccc(Cl)cc32)CC1 (configuration not stated)	inactive	–
O=C1/C(=C\c2ccc(Cl)cc2)CCC1CNc1ccc(Cl)cc1 (configuration not stated)	inconclusive: 39.8 µM [inhibitor, single point]	–

SMILES	Potency	activity change, negative = inhibition
Cc1ccc(NC(=S)NNC(=S)NC2CCCCC2)cc1	inactive	–
COc1cc(/C=C2\COC/C(=C\c3cc(OC)c(OC)c(OC)c3)C2=O)cc(OC)c1OC	active: 3.16 µM	–
Cc1[nH]c2ccccc2c1C1(O)C(=O)N(Cc2ccccc2)c2ccc(Br)cc21 (configuration not stated)	inconclusive: 35.5 µM [inhibitor, single point]	–
Cc1ccc(-n2ncc(C(=O)NCCN3CCc4ccccc4C3)c2C2CCN(C(=O)OC(C)(C)C)CC2)c(C)c1	inconclusive: 31.6 µM [inhibitor, single point]	–
CC(C)Cc1ccc(CN2CCCC(NC(=O)CCn3cnnn3)C2)cc1 (configuration not stated)	inactive	–
O=c1[nH]c(SCc2nc3c(cnn3-c3ccccc3)c(=O)[nH]2)nc2ccccc12	inactive	–
O=[N+]([O-])c1ccc(NN=Cc2ccccc2O)nc1	inconclusive: 22.4 µM [inhibitor, single point]	–
CCCCSc1nc(C)c(C(C)=O)cc1C#N	inactive	–
CN1CCN(C(=S)C(=O)Nc2ccc(Br)cc2)CC1	inactive	–
COc1ccc2c(c1)c(CC(=O)OC/C=C(\C)CC/C=C(\C)CCC=C(C)C)c(C)n2C(=O)c1ccc(Cl)cc1	inconclusive: 35.5 µM [inhibitor, partial curve, poor fit]	–
O=C(NCCn1cc(SCc2ccc(C(F)(F)F)cc2)c2ccccc21)c1cccs1	inconclusive: 22.4 µM [inhibitor, single point]	–
COc1ccc(-c2[nH]nc3nc(N4CCN(C(=O)c5ccoc5)CC4)cc(C(F)(F)F)c23)cc1	active: 20 µM	–
c1ccc2c(N3CCCCCC3)nc(-c3ccncc3)nc2c1	inconclusive: 22.4 µM [inhibitor, single point]	–
CC(C)(CC(=O)OCC(=O)Nc1ccc(F)c(Cl)c1)CC1=NS(=O)(=O)c2ccccc2N1	inconclusive: 20 µM [inhibitor, single point]	–
COc1ccc(C(=O)O/N=C(\N)c2ccccn2)cc1	active: 11.2 µM	–
CCCCCCn1c(C)nc2c(c1=O)c1nc3ccccc3nc1n2/N=C/c1ccco1	inconclusive: 31.6 µM [inhibitor, single point]	–
NC(=O)N/N=C/c1ccc([N+](=O)[O-])o1	inactive and inconclusive: 25.1 µM [inhibitor, partial curve]	–
OC1(c2ccc(F)cc2)CN(c2ccccc2)C2=[N+]1CCS2 (configuration not stated)	inactive	–
Cc1cccc(N(Cc2ccccc2)C(=O)c2cc(S(=O)(=O)N3CCOCC3)ccc2F)c1	inconclusive: 39.8 µM [inhibitor, single point]	–
CC[C@]12c3[nH]c4ccc(Cl)cc4c3CCN1C(=O)[C@@H](CC(=O)NCCC1=CCCCC1)C[C@@H]2C(=O)N1CCN(C(=O)c2ccco2)CC1	inconclusive: 39.8 µM [inhibitor, single point]	–
Cc1ccc(C(=O)c2c3ccc([N+](=O)[O-])cc3[n+]([O-])n2CCCC(N)=O)cc1	inconclusive: 28.2 µM [inhibitor, partial curve, poor fit]	–

Reference: PubChem BioAssay AID1745845 (National Center for Advancing Translational Sciences (NCATS), 2022)
